# From PubChem BioAssay AID624296 (National Center for Advancing Translational Sciences (NCATS), 2012)
# About 9,900 (2.8%) of roughly 350,000 compounds were called active. The inconclusive results got no clear call from the source; some entries with a clear call stand among them for comparison. Calls follow the shape of the dose curve; as a rule, active = well fitted activation curve with a large enough effect; inconclusive = small, poorly fitted or top-dose-only effect; inactive = no such curve, though single readings can be large or run the other way. No potency is given beside an inconclusive call; the fits are too rough.
# Assay: A quantitative high throughput screen for small molecules that induce DNA re-replication in MCF 10a normal breast cells. Also: nearly all actives have a fitted effect of over 50% in size. As to activity, positive = re-replication: % of control where 0% means no effect.
# Conditions: MCF 10A DNA re-replication, Hoechst nuclear intensity, 48 h; activity, positive = re-replication: at 46.1 µM (top of the series)
# Potency is read from the fitted curve at half-maximal effect; tags tell the direction and shape of the fitted curve.
Structure (SMILES),Potency,"activity, positive = re-replication"
O=C(NCCC(c1ccccc1)c1ccccc1)c1ccc(Br)o1,"inconclusive [activator, single point]",–
COC(=O)[C@@H](Cc1c[nH]c2ccccc12)NC(=O)C1CCCN(S(=O)(=O)c2ccc(C)cc2)C1 (some centres undefined),"inconclusive [activator, single point]",–
COc1ccc(CN2CC(C(=O)NCCC3=CCCCC3)CC2=O)cc1 (centres undefined),"inconclusive [activator, single point]",–
COc1cc(NCCCCCCCN)c2ncccc2c1,"inconclusive [activator, partial curve, poor fit]",–
O=C(CSc1ccccc1)N1CCCC(N2CCN(c3ccc(F)cc3)CC2)C1 (centres undefined),–,inactive: 8.12%
CCCCc1cc(=O)oc2cc(OCc3cc(OC)c(OC)c(OC)c3)c(Cl)cc12,active: 10 µM,–
Cc1ccc(O)c(N=NC2=C(O)CC(C)(C)CC2=O)c1,"inconclusive [activator, partial curve]",–
NC(=O)c1oc2ccccc2c1NC(=O)c1ccc([N+](=O)[O-])o1,"inconclusive [activator, full curve, poor fit]",–
COc1ccc(-n2nc([N+](=O)[O-])c(=NCc3ccc4c(c3)OCO4)n2O)cc1,–,inactive: -2.31%
CCC(C)Sc1ccc([C@@H]2[C@@H]3C(=O)N(C)C(=O)[C@@H]3[C@]3(C(=O)OC)CCCCN23)cc1 (some centres undefined),–,inactive: -40.2%
O=C(c1cccs1)c1no[n+]([O-])c1C(=O)c1cccs1,active: 11.6 µM,–
COc1cccc(N2CN(CCc3ccccc3)CNC2=S)c1,"inconclusive [activator, single point]",–
N#CCc1c[nH]c2ccc([N+](=O)[O-])cc12,–,inactive: 2.4%
COc1cccc(CN2CCN(Cc3ccco3)CC2)c1,–,inactive: -2.4%
CC(=O)OCC(=O)C1(O)CCC2C3CCC4=CC(=O)CCC4(C)C3C(O)CC21C (centres undefined),–,inactive: -2.88%
Cc1nn(-c2ccccc2)c(=S)c2ccccc12,"inconclusive [activator, partial curve, poor fit]",–
Cc1ccc(-c2nc(CS(=O)(=O)CC(=O)NCCCN(Cc3ccccc3)C(C)C)c(C)o2)cc1,"inconclusive [activator, partial curve, poor fit]",–
COCCOC(=O)/C(=C/c1ccc(OC(=O)c2ccccc2)cc1)C(C)=O,"inconclusive [activator, single point]",–
CC(C)(C)OC(=O)NCCCCCNC(=O)c1nc[nH]c1C(=O)NCCCCCNC(=O)OC(C)(C)C,"inconclusive [activator, single point]",–
